# Measured values from PubChem BioAssay (NCATS).
# The inconclusive results got no clear call from the source; some entries with a clear call stand among them for comparison. For some of these results: No potency is given beside an inconclusive call; the fits are too rough. Active and inactive are the calls of the source. Unless noted, calls come from the whole dose curve; as a rule, active = well fitted curve in the direction sought with a large enough effect; inconclusive = small, poorly fitted or top-dose-only effect, or another doubt; inactive = no such curve, though single readings can be large; an effect the other way counts as inactive or inconclusive.
# Columns and labels:
# [1] = qHTS of pediatric cancer cell lines to identify multiple opportunities for drug repurposing: Primary screen for SJ-GBM2 cells (AID 1347091); note: potency is the fitted concentration of half-maximal effect
# In short: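 Viability measured as metabolically active cells via CellTiter-Glo luminescence following 48 hours of compound exposure, 11-point dilutions in confirmatory testing. 500-1,000 cells/well plated 5 hours before dosing; controls were DMSO and 2.3 µM bortezomib.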
# [2] = qHTS of pediatric cancer cell lines to identify multiple opportunities for drug repurposing: Primary screen for SK-N-MC cells (AID 1347093); conditions: SK-N-MC viability, CellTiter-Glo luminescence, 48 h; activity change, negative = cytotoxic: at 46 µM (top of the series); note: potency is the fitted concentration of half-maximal effect
# In short: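 Metabolically active cells were quantified by ATP-dependent luminescence (CellTiter-Glo, 15 min at room temperature) following 48 h treatment. Cells had been plated at 500-1,000 per well and settled for 5 h beforehand.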
# [3] = qHTS of pediatric cancer cell lines to identify multiple opportunities for drug repurposing: Primary screen for Saos-2 cells (AID 1347097); conditions: Saos-2 viability, CellTiter-Glo ATP luminescence, 48 h; activity change, negative = cytotoxic: at 46 µM (top of the series); note: nearly all actives have a fitted effect of over 40% in size; note: potency is the fitted concentration of half-maximal effect
# In short: (§1)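 ATP-based luminescence (CellTiter-Glo) quantifies viability after a 48-hour exposure. Compounds are dosed across 8 or 11 final concentrations; DMSO and 2.3 µM bortezomib serve as controls.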
# [4] = qHTS of pediatric cancer cell lines to identify multiple opportunities for drug repurposing: Primary screen for OHS-50 cells (AID 1347103); note: potency is the fitted concentration of half-maximal effect; nearly all actives have a fitted effect of over 40% in size
# In short: (§2)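 Cells (500-1,000/well) rested 5 h, then received compounds for 48 h; metabolically active cells were measured by CellTiter-Glo luminescence. Final concentrations spanned up to 46 µM (MIPE, 11-point) or 0.59 nM-46 µM (NPC, 8-point) in primary screens, 11-point in follow-ups.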
# [5] = Primary qHTS for small molecule stabilizers of the endoplasmic reticulum resident proteome: Secreted ER Calcium Modulated Protein (SERCaMP) assay (AID 1508630); conditions: SH-SY5Y GLuc-SERCaMP (Gaussia luciferase released on ER calcium loss) secretion, thapsigargin, luminescence; series mostly up to 38.4 µM
# In short: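 The SH-SY5Y reporter protocol was run at 3 concentrations up to 38.3 uM (primary) or 11 concentrations (follow-up): 16 h compound, 100 nM thapsigargin for 4 h, then extracellular luciferase luminescence.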
# [6] = molecular target: Cytochrome P450 2D6 (Homo sapiens) (UniProt P10635); assay: Cytochrome P450 family 2 subfamily D member 6 (CYP2D6) small molecule antagonists: luciferase biochemical (cell-free) qHTS assay (AID 1645840; active = well fitted curve in the direction sought with a large enough effect in the repeat runs; inconclusive = weak or mixed curves; inactive = no such curve, though single readings can be large; an effect the other way counts as inactive or inconclusive; note: potency is the fitted concentration of half-maximal effect; nearly all actives have a fitted effect of over 55% in size)
# Sequence of UniProt P10635 (P10635 whole entry, looked up): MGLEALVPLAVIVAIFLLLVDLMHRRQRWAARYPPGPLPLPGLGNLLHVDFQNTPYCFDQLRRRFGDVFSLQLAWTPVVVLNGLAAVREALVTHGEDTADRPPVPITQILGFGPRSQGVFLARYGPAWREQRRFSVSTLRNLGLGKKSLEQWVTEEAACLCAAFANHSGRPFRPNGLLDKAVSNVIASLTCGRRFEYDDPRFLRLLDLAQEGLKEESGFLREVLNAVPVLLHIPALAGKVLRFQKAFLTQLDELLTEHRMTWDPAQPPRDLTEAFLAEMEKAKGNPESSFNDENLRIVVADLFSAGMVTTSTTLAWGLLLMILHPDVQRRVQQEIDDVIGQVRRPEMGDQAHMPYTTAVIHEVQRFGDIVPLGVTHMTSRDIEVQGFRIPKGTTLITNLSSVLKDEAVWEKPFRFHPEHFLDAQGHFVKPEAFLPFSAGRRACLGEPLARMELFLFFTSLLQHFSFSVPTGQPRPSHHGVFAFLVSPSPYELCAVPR
# In short: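 P450-Glo CYP2D6 system: proluciferin substrate converted by enzyme to luciferin, read by luminescence proportional to activity. Enzyme-substrate mix with compound 10 min at room temperature, then NADPH regeneration 1 h before detection reagent.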
# [7] = molecular target: Cytochrome P450 2C9 (Homo sapiens) (UniProt P11712); assay: Cytochrome P450 family 2 subfamily C member 9 (CYP2C9) small molecule antagonists: luciferase biochemical (cell-free) qHTS assay (AID 1645842; active = well fitted curve in the direction sought with a large enough effect in the repeat runs; inconclusive = weak or mixed curves; inactive = no such curve, though single readings can be large; an effect the other way counts as inactive or inconclusive; note: potency is the fitted concentration of half-maximal effect; nearly all actives have a fitted effect of over 55% in size)
# Sequence of UniProt P11712 (P11712 whole entry, looked up): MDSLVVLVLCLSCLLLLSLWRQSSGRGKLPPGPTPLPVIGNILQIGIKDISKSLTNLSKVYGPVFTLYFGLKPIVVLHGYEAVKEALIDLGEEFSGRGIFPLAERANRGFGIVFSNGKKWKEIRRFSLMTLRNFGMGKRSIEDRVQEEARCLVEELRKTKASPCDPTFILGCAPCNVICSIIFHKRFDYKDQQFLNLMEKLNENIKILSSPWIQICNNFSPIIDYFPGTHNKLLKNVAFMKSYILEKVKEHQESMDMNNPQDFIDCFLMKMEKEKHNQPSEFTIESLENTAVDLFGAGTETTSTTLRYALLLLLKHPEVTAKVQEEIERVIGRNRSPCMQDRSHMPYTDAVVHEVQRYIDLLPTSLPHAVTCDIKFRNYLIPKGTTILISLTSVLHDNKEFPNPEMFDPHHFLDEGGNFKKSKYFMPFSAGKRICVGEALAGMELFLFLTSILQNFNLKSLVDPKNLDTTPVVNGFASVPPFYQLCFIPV
# In short: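 P450-Glo CYP2C9 system: proluciferin substrate with enzyme in mix containing 0.4% BSA, 10 min at room temperature, then NADPH regeneration solution added and incubated 1 h at 37C. Detection reagent stopped reaction; luminescence read after 20 min as RLU.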
# [8] = molecular target: Cytochrome P450 3A4 (Homo sapiens) (UniProt P08684); assay: Cytochrome P450 family 3 subfamily A member 4 (CYP3A4) small molecule antagonists: luciferase qHTS assay (AID 1645841; active = well fitted curve in the direction sought with a large enough effect in the repeat runs; inconclusive = weak or mixed curves; inactive = no such curve, though single readings can be large; an effect the other way counts as inactive or inconclusive; note: potency is the fitted concentration of half-maximal effect; nearly all actives have a fitted effect of over 45% in size)
# Sequence of UniProt P08684 (P08684 whole entry, looked up): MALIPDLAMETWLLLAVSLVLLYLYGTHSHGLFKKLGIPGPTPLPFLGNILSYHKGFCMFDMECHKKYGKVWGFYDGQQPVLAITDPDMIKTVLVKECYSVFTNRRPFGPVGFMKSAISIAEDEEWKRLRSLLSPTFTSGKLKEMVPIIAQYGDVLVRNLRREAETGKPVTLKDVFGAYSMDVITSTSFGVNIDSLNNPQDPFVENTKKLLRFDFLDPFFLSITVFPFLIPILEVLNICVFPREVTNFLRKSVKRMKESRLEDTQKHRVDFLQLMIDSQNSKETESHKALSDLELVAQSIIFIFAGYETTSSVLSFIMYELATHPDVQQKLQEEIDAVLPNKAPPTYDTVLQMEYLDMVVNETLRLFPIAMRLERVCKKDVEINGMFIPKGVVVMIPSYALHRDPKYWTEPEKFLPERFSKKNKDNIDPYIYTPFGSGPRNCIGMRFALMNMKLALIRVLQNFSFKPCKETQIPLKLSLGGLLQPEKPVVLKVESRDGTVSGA
# In short: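 P450-Glo CYP3A4 enzyme with proluciferin substrate preincubated 10 min with compound at room temperature, then NADPH regeneration 1 h. Luciferin detection reagent added for 20 min; luminescence recorded. Ketoconazole positive control.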
# [9] = molecular target: Phospholipid hydroperoxide glutathione peroxidase GPX4 (Homo sapiens) (UniProt P36969); assay: Primary qHTS Assay for Inhibitors of Recombinant Selenoprotein Glutathione Peroxidase 4 (GPX4) (AID 1845192); note: potency is the fitted concentration of half-maximal effect; nearly all actives have a fitted effect of over 65% in size
# Sequence of UniProt P36969 (P36969 whole entry, looked up): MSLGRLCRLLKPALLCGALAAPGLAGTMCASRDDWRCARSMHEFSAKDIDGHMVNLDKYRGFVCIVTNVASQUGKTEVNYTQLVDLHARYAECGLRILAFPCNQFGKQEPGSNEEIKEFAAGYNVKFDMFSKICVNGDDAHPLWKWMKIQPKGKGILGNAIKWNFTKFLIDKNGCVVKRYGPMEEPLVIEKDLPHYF
# In short: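 Steps: GPX4 plus compound, 30 min RT; add GR/GSH/NADPH master mix; start with cumene hydroperoxide; read 340/450 nm fluorescence at 0 and 15 min. Finals were 200 nM GPX4, 1 mM GSH, 0.5 mM CHP, 0.5 mM NADPH, 100 nM GR.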
# HeLa = assay: Primary qHTS to identify gynecologic anti-cancer compounds using libraries of approved drugs and bioactive compounds (AID 1345084); conditions: Gynecologic cancer cell panel viability, ATPlite luminescence, 48 h; series mostly up to 57.5 µM; note: potency is the fitted concentration of half-maximal effect; nearly all actives have a fitted effect of over 55% in size
# In short: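 Cells, 1,000 per well, were allowed to settle for 16 h at 37 C before compound addition. Five concentrations were tested for 48 h, and viability was read by ATPlite luminescence after 15 min at room temperature.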
# [10] = test system: Zika virus NS2B-NS3 protease (unlinked complex); assay: Primary screen GU Rhodamine qHTS for Zika virus inhibitors: Unlinked NS2B-NS3 protease assay (AID 1347159); note: nearly all actives have a fitted effect of over 60% in size; note: potency is the fitted concentration of half-maximal effect
# In short: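 Percent inhibition came from the 15-min rise in Rhodamine110 fluorescence (1.5 microM substrate, ~15% conversion), normalized to no-inhibitor and no-enzyme wells and Hill-fitted. Unlinked protease, 25 nM, pH 8.0 Tris buffer; compounds up to 114 microM, 15-min preincubation.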
# [11] = test system: Zika virus NS2B-NS3 protease (linked construct); assay: Primary screen NINDS Rhodamine qHTS for Zika virus inhibitors (AID 1347160); note: potency is the fitted concentration of half-maximal effect; nearly all actives have a fitted effect of over 55% in size
# In short: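 Rhodamine110-peptide cleavage (1.5 µM substrate) by 25 nM linked NS2B-NS3 enzyme at pH 8.0 (Tris, Tween 20), after 15 min RT preincubation with compounds; 15-min fluorescence change normalized to controls and Hill-fitted.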
# [12] = qHTS of pediatric cancer cell lines to identify multiple opportunities for drug repurposing: Primary screen for BT-12 cells (AID 1347101); note: potency is the fitted concentration of half-maximal effect; nearly all actives have a fitted effect of over 25% in size
# In short: as §2
# [13] = qHTS of pediatric cancer cell lines to identify multiple opportunities for drug repurposing: Primary screen for NB1643 cells (AID 1347099); note: potency is the fitted concentration of half-maximal effect; nearly all actives have a fitted effect of over 50% in size
# In short: as §1
# MKL-2 = assay: qHTS assay to identify novel small-molecules to repurpose for Merkel cell carcinoma treatment (AID 1296009); conditions: MCC and control cell lines, CellTiter-Glo viability, 72 h; series mostly up to 46 µM; note: potency is the fitted concentration of half-maximal effect; nearly all actives have a fitted effect of over 60% in size
# In short: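 CellTiter-Glo luminescence after 72 hr compound exposure at 37 degree celsius gave cell viability. Libraries NPC and MIPE were run as 8- and 11-point dose responses; RLUs normalized to DMSO (negative) and no-cell (cytotoxicity) controls.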
# [14] = Primary redox qHTS assay for identification of artifact compounds. (AID 1845223); note: potency is the fitted concentration of half-maximal effect
# In short: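 Redox-cycling detection via DTT (250 uM final) oxidation coupled to Amplex Red (25 uM)/HRP (250 mU/mL) in HBSS. 15 min preincubation plus 30 min after DTT, room temperature. Ex/Em 525/598 nm; 4-parameter Hill fit against DMSO and 10 uM DA3003.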
# Tags give direction and shape of the fitted curve.
smiles,measurement,setting,value
CC(C)Cc1ccc(C(C)C(=O)OCc2ccccn2)cc1 (stereo not drawn),Potency,[1],inactive
same,Potency,[2],"inconclusive [cytotoxic, partial curve, poor fit]"
same,Potency,[3],inactive
same,Potency,[4],"inconclusive [cytotoxic, partial curve, poor fit]"
same,Potency,[5],inactive
same,Potency,[6],"inconclusive [inhibitor, partial curve, poor fit]"
same,Potency,[7],active: 9.77 µM
Cn1cc(-c2ccc(S(=O)(=O)n3ccc(/C=C/C(=O)Nc4ccccc4N)c3)cc2)cn1,Potency,[6],active: 2.68 µM
same,Potency,[8],"inconclusive [falling, full curve]"
same,Potency,[9],"inconclusive [inhibitor, partial curve]"
same,Potency,HeLa,active: 10 µM
S=C(c1ccc(-c2ccc(Cl)c(Cl)c2)o1)N1CCCCC1,Potency,[10],"inconclusive [inhibitor, full curve]"
same,Potency,[11],"inconclusive [inhibitor, single point]"
same,Potency,[6],"inconclusive [inhibitor, partial curve]"
same,Potency,[9],"inconclusive [inhibitor, partial curve, poor fit]"
O=C(O)c1ccc(OC2OC(CO)C(O)C(O)C2O)cc1 (stereo not drawn),Potency,[10],inactive
O=C(Nc1ccc(Cl)c(Cl)c1)C1CC1,Potency,[12],"inconclusive [cytotoxic, partial curve]"
same,Potency,[7],"inconclusive [inhibitor, single point]"
CCOC(=O)[C@@H](N)Cc1ccc(-c2cc(O[C@H](c3ccc(Cl)cc3-n3ccc(C)n3)C(F)(F)F)nc(N)n2)cc1,Potency,[1],"inconclusive [cytotoxic, single point]"
same,Potency,[3],active: 18.7 µM
same,Potency,[13],"inconclusive [cytotoxic, single point]"
same,Potency,[11],"inconclusive [inhibitor, single point]"
same,Potency,[5],inactive
same,Potency,[6],"inconclusive [inhibitor, single point]"
same,Potency,[9],"inconclusive [inhibitor, partial curve]"
same,Potency,MKL-2,"inconclusive [inhibitor, single point]"
COc1ccc(-c2ccccc2)cc1NS(=O)(=O)c1cc(Cl)cc(Cl)c1O,Potency,[14],"inconclusive [activator, partial curve, poor fit]"
same,Potency,HeLa,"inconclusive [cytotoxic, single point]"
